Source: article PMC6377148
No constants are given. Whether binding was seen depends on the method and setting. In cells and extracts the contact can be indirect. Some results given as binding are weak or reduced against the parent protein; the word gives no strength. Tags and fused reporters may be left off the sequences shown.

The chains behind the UniProt entries cited, without tags or fusion partners.
UniProt P49336: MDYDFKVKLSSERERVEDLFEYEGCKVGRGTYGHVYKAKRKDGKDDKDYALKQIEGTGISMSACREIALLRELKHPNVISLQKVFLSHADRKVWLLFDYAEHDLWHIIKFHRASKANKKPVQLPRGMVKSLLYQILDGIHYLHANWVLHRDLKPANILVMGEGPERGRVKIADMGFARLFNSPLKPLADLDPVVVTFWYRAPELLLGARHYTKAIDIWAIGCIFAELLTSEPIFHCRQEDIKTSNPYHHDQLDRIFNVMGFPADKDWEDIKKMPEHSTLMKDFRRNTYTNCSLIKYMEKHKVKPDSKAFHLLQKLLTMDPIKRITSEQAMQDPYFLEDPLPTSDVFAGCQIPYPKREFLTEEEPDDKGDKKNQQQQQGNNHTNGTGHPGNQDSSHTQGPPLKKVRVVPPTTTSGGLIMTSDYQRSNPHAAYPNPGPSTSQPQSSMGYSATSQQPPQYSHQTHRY
UniProt Q7Z2Z1: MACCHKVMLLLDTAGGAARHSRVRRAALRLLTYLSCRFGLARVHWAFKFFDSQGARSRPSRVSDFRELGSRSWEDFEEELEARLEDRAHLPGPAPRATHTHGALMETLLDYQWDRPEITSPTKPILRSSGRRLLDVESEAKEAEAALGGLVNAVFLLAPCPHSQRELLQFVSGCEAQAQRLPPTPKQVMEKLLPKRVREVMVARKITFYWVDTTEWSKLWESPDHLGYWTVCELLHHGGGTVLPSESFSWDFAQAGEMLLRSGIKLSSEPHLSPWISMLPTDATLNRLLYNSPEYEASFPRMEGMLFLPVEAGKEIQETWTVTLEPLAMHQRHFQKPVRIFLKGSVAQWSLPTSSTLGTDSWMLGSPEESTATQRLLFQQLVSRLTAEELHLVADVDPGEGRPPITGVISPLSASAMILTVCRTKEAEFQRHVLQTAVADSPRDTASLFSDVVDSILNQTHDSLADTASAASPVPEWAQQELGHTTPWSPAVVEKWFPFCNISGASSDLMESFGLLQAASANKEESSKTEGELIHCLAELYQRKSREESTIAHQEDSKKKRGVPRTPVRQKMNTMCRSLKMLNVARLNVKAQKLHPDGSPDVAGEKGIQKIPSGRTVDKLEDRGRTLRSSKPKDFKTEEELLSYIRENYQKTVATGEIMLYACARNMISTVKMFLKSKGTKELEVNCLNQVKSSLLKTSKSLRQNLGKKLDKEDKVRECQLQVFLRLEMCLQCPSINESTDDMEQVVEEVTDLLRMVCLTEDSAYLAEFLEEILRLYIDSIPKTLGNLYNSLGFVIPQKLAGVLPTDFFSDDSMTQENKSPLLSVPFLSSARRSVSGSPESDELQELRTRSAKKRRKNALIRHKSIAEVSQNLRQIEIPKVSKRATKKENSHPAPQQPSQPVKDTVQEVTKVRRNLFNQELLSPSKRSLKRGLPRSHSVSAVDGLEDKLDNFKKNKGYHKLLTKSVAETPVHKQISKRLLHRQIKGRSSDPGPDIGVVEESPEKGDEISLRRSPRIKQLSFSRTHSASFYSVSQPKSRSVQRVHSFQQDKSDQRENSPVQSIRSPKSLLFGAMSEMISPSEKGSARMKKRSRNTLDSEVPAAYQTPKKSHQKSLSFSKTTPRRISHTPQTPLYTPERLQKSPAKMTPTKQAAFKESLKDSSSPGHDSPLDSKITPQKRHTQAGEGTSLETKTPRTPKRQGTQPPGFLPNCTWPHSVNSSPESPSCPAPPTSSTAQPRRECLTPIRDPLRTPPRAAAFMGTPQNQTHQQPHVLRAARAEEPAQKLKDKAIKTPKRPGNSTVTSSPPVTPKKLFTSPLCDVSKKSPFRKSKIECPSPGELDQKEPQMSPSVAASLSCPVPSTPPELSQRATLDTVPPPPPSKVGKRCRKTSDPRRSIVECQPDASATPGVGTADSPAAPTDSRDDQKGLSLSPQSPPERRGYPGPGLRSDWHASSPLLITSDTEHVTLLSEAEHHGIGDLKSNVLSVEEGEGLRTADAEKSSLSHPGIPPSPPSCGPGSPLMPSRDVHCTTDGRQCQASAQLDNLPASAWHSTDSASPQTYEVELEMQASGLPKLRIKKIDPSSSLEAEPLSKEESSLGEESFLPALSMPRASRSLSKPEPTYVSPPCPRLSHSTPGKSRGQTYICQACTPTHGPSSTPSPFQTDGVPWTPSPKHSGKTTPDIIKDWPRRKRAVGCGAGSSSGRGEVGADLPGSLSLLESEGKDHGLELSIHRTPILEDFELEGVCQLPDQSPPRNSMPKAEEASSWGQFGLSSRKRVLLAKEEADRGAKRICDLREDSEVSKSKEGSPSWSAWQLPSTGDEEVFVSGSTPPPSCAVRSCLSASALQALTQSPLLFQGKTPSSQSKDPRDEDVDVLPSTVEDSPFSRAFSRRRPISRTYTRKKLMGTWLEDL

Tests used:
Test in all cases: co-IP; anti-GFP (GFP nanobodies, mock-coupled control beads) IP from native lysates of HeLa Flip-In T-Rex lines expressing MTBP-3×Flag-TEV2-GFP (WT or deletions); endogenous Treslin/TICRR and Cdk8 by immunoblot
[1] = molecular target: T1, MTBP mutant lacking amino acids R595 to L634, Flag3-GFP-tagged (human) (UniProt Q96DY7)
T1 sequence: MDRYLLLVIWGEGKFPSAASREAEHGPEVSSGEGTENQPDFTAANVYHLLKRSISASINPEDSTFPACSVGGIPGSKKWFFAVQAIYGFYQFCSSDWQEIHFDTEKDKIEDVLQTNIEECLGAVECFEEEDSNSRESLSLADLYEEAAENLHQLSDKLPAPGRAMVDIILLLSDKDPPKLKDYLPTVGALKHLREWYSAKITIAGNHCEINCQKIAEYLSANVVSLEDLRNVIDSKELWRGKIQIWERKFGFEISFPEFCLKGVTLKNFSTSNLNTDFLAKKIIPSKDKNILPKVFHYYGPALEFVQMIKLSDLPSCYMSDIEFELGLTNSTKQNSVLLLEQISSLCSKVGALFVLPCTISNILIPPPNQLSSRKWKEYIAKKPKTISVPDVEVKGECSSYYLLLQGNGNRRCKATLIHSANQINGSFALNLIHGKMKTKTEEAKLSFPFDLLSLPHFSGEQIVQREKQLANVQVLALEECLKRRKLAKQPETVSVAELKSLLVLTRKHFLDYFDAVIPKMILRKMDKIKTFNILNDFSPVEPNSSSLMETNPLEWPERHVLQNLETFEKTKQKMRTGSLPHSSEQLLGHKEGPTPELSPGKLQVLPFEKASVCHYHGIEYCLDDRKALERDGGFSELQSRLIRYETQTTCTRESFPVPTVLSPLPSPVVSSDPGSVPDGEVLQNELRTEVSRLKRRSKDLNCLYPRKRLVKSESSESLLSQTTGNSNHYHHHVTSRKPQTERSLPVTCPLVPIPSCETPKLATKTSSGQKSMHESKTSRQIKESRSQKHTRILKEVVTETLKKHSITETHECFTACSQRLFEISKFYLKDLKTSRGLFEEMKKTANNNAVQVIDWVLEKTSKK

[2] = molecular target: T2, MTBP-ΔT635–P704, Flag3-GFP-tagged (human) (UniProt Q96DY7)
T2 sequence: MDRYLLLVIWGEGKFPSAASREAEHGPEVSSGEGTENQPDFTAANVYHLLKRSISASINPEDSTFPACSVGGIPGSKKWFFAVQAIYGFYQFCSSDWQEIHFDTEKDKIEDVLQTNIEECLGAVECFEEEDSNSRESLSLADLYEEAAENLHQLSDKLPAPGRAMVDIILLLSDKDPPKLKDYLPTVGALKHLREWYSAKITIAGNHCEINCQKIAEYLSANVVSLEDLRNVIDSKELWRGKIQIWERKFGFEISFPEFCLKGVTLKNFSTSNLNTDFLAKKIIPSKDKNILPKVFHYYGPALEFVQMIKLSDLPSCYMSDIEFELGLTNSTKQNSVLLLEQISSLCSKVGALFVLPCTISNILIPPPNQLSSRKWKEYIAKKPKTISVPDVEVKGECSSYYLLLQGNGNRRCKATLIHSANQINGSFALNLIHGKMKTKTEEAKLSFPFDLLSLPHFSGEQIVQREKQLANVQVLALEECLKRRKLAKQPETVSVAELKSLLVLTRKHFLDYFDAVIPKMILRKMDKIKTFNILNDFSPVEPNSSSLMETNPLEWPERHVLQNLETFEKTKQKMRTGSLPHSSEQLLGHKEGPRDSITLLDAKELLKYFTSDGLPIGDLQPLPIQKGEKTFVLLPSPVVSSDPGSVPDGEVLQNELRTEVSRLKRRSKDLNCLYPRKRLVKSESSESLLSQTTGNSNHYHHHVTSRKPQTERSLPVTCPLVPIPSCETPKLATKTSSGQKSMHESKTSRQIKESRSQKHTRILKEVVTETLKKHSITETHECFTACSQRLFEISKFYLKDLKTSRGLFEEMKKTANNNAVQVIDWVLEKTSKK

[3] = molecular target: T3, MTBP-Δ516–704–3×Flag-TEV2-GFP (mSld7) (human) (UniProt Q96DY7)
T3 sequence: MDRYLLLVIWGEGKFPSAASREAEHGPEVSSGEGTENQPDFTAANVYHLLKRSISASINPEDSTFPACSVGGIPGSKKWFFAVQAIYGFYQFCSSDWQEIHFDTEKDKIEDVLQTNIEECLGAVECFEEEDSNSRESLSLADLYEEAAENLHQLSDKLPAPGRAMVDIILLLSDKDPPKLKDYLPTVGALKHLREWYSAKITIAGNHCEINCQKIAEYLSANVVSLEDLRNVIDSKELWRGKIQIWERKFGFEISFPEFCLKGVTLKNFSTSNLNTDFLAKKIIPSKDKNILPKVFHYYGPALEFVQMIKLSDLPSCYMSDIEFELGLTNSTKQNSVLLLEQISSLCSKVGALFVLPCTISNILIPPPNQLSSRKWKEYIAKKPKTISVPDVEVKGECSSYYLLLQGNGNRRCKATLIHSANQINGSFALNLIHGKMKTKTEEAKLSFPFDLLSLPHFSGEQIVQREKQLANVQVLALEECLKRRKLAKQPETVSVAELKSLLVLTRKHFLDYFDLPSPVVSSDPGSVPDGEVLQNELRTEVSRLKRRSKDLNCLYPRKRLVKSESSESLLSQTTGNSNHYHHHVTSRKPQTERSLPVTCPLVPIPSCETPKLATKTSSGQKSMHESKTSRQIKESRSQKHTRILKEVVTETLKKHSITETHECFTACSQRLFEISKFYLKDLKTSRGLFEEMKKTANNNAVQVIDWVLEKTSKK

Substance	binding [1]	binding [2]	binding [3]
Cdk8 (cyclin-dependent kinase 8), endogenous (from UniProt P49336 1-464) (enzyme)	no binding	no binding	–
Treslin/TICRR (TopBP1-interacting replication stimulating protein/TopBP1-interacting checkpoint and replication regulator), endogenous (from UniProt Q7Z2Z1 1-1910)	–	–	binds weakly
